Results from PubChem BioAssay AID624417 (National Center for Advancing Translational Sciences (NCATS), 2012).
The whole screen tested about 410,000 compounds, of which about 6,400 (1.6%) were called active. The inconclusive results got no clear call from the source; some entries with a clear call stand among them for comparison. Calls come from the whole dose curve; as a rule, active = well fitted inhibition curve with a large enough effect; inconclusive = small, poorly fitted or top-dose-only effect; inactive = no such curve, though single readings can be large or run the other way. No potency is given beside an inconclusive call; the fits are too rough.

What follows are compounds tested against Glucagon-like peptide 1 receptor (Homo sapiens) (UniProt P43220) (assay: qHTS of GLP-1 Receptor Inverse Agonists (Inhibition Mode)). Details: HEK293 GLP-1R CRE-luciferase, luminescence, 24 h, GLP-1R form is constitutively active; activity change, negative = inhibition: at 38.3 µM (top of the series) unless noted.
UniProt P43220, sequence (P43220 whole entry, looked up): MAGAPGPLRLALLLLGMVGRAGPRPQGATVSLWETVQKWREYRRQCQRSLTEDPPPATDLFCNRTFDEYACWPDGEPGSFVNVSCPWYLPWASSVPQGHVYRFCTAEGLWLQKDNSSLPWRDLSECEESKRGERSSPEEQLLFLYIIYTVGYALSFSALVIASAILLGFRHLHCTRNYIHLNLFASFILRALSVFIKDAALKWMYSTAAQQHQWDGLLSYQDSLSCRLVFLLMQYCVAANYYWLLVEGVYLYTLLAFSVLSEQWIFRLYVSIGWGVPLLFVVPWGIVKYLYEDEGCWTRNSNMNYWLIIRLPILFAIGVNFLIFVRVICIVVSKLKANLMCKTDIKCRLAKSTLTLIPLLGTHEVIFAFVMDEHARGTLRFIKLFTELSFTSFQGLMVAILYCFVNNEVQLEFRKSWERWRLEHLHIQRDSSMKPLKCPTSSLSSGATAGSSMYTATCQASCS
Summary of the method: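 Inverse agonism was detected as reduced cAMP-driven luciferase luminescence after 24 h compound treatment. The cells were HEK293 clones expressing constitutively active human GLP-1R with the reporter. Reporter-only and GPR119 cell lines served as counterscreen controls.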
% is set by controls: 0 for no effect and ±100 for the full control effect; potency is the fitted concentration of half-maximal effect; tags give direction and shape of the fitted curve.
Note: nearly all actives have a fitted effect of over 55% in size.

SMILES	Potency	activity change, negative = inhibition
Cn1c(N)c(C(=O)Nc2ccc(-c3ccccc3)cc2)sc1=S	inconclusive [inhibitor, partial curve, poor fit]	
COC(=O)c1c(NC(=O)C2CC2)sc2c1CCCC2	inconclusive [inhibitor, single point]	
CCOC(=O)c1cc(-c2ccc(OC)cc2)n(CCC(=O)NC2CCCCC2)c1C	inconclusive [inhibitor, partial curve]	
COc1ccc(N(C(=O)C(C)C)S(=O)(=O)c2ccc3ccccc3c2)cc1	inconclusive [inhibitor, single point]	
CCCNC(=O)c1onc(CSc2ccccc2)c1C(=O)NCCC	inconclusive [inhibitor, single point]	
CN(CC(=O)NCc1ccc(F)cc1)S(=O)(=O)c1ccc(Br)s1	inconclusive [inhibitor, single point]	
CCN1/C(=C/c2ccc3cc(C)ccc3[n+]2CC)Sc2ccccc21	inconclusive [inhibitor, partial curve, poor fit]	
CCOc1cc2[nH]c(=S)n(Cc3ccc(C(=O)NCCCN(CC)CC)cc3)c(=O)c2cc1OCC	inconclusive [inhibitor, single point]	
Cc1cc(C)c(NC(=O)CNC(=O)CN2C(=O)NC3(CCCc4ccccc43)C2=O)c(C)c1 (stereo unspecified)	inconclusive [inhibitor, single point]	
CCCC1(c2ccccc2)NC(=O)N(CC(=O)NCC2COc3ccccc3O2)C1=O (stereo unspecified)	inconclusive [inhibitor, partial curve, poor fit]	
c1csc(Cn2nnnc2CN2CCN(c3nc4ccccc4s3)CC2)c1	inconclusive [inhibitor, partial curve, poor fit]	
O=C(O)Cc1ccc(C(=O)c2ccc(Cl)cc2Cl)s1	inconclusive [inhibitor, partial curve]	
Cc1cc(CN(Nc2ccccc2)c2ccccc2)cc(C)n1	inconclusive [inhibitor, partial curve, poor fit]	
COC(=O)CSC1=C(C#N)C(=O)NC(c2ccccc2)S1 (stereo unspecified)		inactive: 2.12%
CCN1CCCC1CN(Cc1cc2cc(OC)ccc2[nH]c1=O)C(=O)NCc1ccccc1 (stereo unspecified)	inconclusive [inhibitor, single point]	
c1ccc(Nc2nnc(SCc3cccc4ccccc34)s2)cc1		inactive: -27.6%
CCOC(=O)c1c(CN(C)C)n(-c2ccccc2)c2cc(Br)c(OC)cc12	inconclusive [inhibitor, single point]	
Cc1ccc(Oc2nc(-c3ccccc3)ncc2S(C)(=O)=O)cc1		inactive: 16.8%
COc1ccc(-c2cc(NCCc3ccncc3)n3ncnc3n2)cc1		inactive: 32.2%
Cc1ccc(Nc2nc3ccccc3c(=O)s2)cc1		inactive: 17.4%
COc1ccc(CN(C)C(=O)CCc2ccc(S(=O)(=O)N3CCCCCC3)cc2)c(OC)c1	inconclusive [inhibitor, single point]	

SMILES	Potency	activity change, negative = inhibition
CCOc1ccc(N(C(=O)c2snc(C(N)=O)c2N)C(C(=O)NC2CCCC2)C(C)C)cc1 (stereo unspecified)	inconclusive [inhibitor, partial curve, poor fit]	
Cc1ccc(/C=C/C(=O)N2CCC(Cc3ccccc3)CC2)cc1	inconclusive [inhibitor, single point]	
CC(NC(=O)c1ccc(-c2ccccc2)cc1)C(c1ccccc1)N1CCOCC1 (stereo unspecified)	active: 2 µM	
c1ccc(Nc2nc(N3CCCC3)nc(N3CCCC3)n2)cc1	inconclusive [inhibitor, full curve, poor fit]	
Cc1ccc(C(C(=O)NCc2ccco2)N(Cc2ccco2)C(=O)CNC(=O)c2ccco2)cc1 (stereo unspecified)	inconclusive [inhibitor, partial curve, poor fit]	
CSc1c(SCc2ccccc2)cnn(Cc2ccccc2)c1=O	inconclusive [inhibitor, single point]	
COc1ccc2oc(C(=O)N(Cc3ccco3)Cc3cccs3)c(C)c2c1	inconclusive [inhibitor, partial curve, poor fit]	
Cc1cccc(NC(=O)CN(c2ccc(C(C)C)cc2)S(=O)(=O)c2c(C)nn(C)c2C)n1	inconclusive [inhibitor, single point]	
COc1ccc(N2CCN(CC(=O)NC(C)c3ccccc3)CC2)cc1 (stereo unspecified)	inconclusive [inhibitor, partial curve, poor fit]	
Cc1ccc(Cn2c(=O)n(CCCCC(=O)NCc3ccccc3Cl)c(=O)c3ccccc32)cc1		inactive: -12.5%
CCn1c(=N)n(CC(=O)C23CC4CC(CC(C4)C2)C3)c2ccccc21	inconclusive [inhibitor, full curve]	
CC(C)CNC(=S)N1CCN(c2nc(-c3ccc(Cl)cc3)cs2)CC1	inconclusive [inhibitor, single point]	
CC(=O)n1cc(Nc2ccc([N+](=O)[O-])cc2)c2ccccc21	inconclusive [inhibitor, single point]	
Cc1ccc(C2CC(c3cccs3)=NN2C(=O)CSc2nc3ccccc3o2)cc1 (stereo unspecified)	inconclusive [inhibitor, single point]	
Cc1cc(C)cc(NC(=S)N2CCN(c3ccccn3)CC2)c1		inactive: -7.85%
COc1ccc(NC(=O)CN(C)C(C)C(=O)NC(=O)NC2CCCCC2)cc1 (stereo unspecified)	inconclusive [inhibitor, single point]	
CC(=O)Nc1ccc(-c2csc(NC(=O)C3CCN(S(=O)(=O)c4cccs4)CC3)n2)cc1	inconclusive [inhibitor, single point]	
Cc1ccc(NC(=O)C(=O)NCC(c2ccc3c(c2)OCO3)N2CCOCC2)cc1C (stereo unspecified)		inactive: 7.13%
CC(NCCS(=O)(=O)c1ccc(Cl)cc1)c1cccc(Cl)c1 (stereo unspecified)	inconclusive [inhibitor, partial curve, poor fit]	
O=C(Nc1nc2n(n1)C(c1ccc(Cl)cc1)CC(c1ccc(Cl)cc1)N2)c1ccco1 (stereo unspecified)	inconclusive [inhibitor, single point]	
